Assays:
[1] = target: human CD40 on the cell surface (Raji cells, HEK-Blue CD40L cells, primary human B cells and DCs) (human, UniProt P25942 21-277); experiment: cell-based or functional assay
[2] = target: T1, his-tagged human CD40 recombinant protein (h-CD40-his, Acrobiosystems Cat. #CD0-H5228) (human, UniProt P25942 fragment); experiment: SPR (Biacore), ADC captured on anti-human Fc chip, His-tagged CD40 as analyte, 1:1 model
T1 construct: Purchased reagent; also called His-tagged human CD40 antigen; not shown: His tag

B cell activation assay, CD19+CD69+%, Donor 1, IC50 [1]: 0.63 nM
B cell activation assay, CD19+CD69+%, Donor 2, IC50 [1]: 0.48 nM
Kd [2]: 0.776 nM
koff [2]: 0.000216 s⁻¹
kon [2]: 278000 M⁻¹ s⁻¹
B1: ADC-2 (9E6-L4H2-compound 2), anti-CD40 antibody-drug conjugate (other)
heavy: QVQVQESGPGLVKPSDTLSLTCTVSGFSLSSYDMSWIRQPPGKGLEWIGAIGGAGGTYYASWAKSRVTISVDTSLNQVSLKLSSVTAADTAVYYCARGWTRLDLWGQGTLVTVSSASTKGPSVFPLAPSSKSTSGGTAALGCLVKDYFPEPVTVSWNSGALTSGVHTFPAVLQSSGLYSLSSVVTVPSSSLGTQTYICNVNHKPSNTKVDKKV[human IgG1 Fc with changes not spelt out]
light: DIQLTQSPSFLSASVGDRVTITCQASEDISSNLAWYQQKPGKPPKLLIFPASNLASGVPSRFSGSGSGTEFTLTISSLQPEDFATYYCQGGYWTSTSNFGQGFGGGTKVEIKRTVAAPSVFIFPPSDEQLKSGTASVVCLLNNFYPREAKVQWKVDNALQSGNSQESVTEQDSKDSTYSLSSTLTLSKADYEKHKVYACEVTHQGLSSPVTKSFNRGEC
modifications: budesonide-linker compound 2 (bromoacetamide) conjugated after TCEP reduction; sites not stated; found DAR 3.8 per antibody
notes: also called anti-CD40-ADC; CD40-ADC
